Data from PMC4336329 (PLoS ONE, 2015).
Out of some 310,000 compounds screened, about 2,200 (0.71%) showed an effect of 50% or more. Effects have a minus sign here. This is one part of the list.

molecular target: human ether-à-go-go-related gene (hERG) potassium channel (human, UniProt Q12809); assay: primary screen, population patch clamp on CHO cells stably expressing hERG
Sequence (Q12809 whole entry, looked up): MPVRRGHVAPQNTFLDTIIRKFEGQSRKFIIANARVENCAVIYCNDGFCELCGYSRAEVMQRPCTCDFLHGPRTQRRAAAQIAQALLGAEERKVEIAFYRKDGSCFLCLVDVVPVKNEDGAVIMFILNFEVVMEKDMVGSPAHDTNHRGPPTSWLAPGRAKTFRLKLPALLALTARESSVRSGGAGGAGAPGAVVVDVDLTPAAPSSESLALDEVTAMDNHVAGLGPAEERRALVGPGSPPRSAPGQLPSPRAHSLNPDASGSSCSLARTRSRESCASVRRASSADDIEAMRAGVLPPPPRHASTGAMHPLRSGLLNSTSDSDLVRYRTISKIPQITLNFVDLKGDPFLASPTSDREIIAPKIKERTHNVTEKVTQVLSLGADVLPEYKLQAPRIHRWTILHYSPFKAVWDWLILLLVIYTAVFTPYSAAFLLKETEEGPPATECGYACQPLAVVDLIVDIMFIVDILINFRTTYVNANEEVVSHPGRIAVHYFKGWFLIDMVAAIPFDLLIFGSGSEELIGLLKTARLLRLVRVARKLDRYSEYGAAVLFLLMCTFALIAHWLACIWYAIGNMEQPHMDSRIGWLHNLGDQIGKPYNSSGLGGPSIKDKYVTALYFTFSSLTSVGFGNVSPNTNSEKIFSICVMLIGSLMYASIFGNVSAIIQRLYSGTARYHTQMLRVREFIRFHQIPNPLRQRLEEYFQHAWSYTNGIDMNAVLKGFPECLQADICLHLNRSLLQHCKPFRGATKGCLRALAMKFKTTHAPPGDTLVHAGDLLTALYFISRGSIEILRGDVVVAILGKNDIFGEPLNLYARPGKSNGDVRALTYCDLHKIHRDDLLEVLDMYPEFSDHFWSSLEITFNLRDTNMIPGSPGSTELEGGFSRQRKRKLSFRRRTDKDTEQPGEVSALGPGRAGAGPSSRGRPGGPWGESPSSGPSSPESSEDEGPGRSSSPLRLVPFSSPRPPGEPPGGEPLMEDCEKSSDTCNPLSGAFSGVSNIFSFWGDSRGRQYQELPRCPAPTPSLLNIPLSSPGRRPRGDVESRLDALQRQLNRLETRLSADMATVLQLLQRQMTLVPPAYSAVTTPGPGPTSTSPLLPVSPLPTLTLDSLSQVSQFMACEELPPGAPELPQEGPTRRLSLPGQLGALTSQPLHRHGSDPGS

| Compound | hERG current change (%, negative = inhibition) at 1uM |
| --- | --- |
| CCOC(=O)c1ccc(C(=O)OCC)nc1 | 16.8% |
| CC(=O)c1cccc(-n2nnnc2SCC(=O)Nc2ccccc2N2CCCCC2)c1 | 5.69% |
| Cc1ccc2c(c1)NCCO2 | 9.1% |
| CCOC(=O)C1(CCc2ccccc2)CCN(Cc2ccc(NC(C)=O)cc2)CC1 | -72.5% |
| CC12CN3CC(C)(CN(C1)C31CCOCC1)C2=O | 11.1% |
| Oc1c(Br)cc(/C=N/Nc2ccc(Cl)nn2)cc1Br | 3.08% |
| CCOc1ccc2oc(-c3ccccc3)c(C(=O)N(C)C)c2c1 | 7.27% |
| Cc1ccc(C(=O)CCNc2ccccc2)o1 | 7.76% |
| COc1ccc(/C=C2\SC(=S)N(CCC(=O)Nc3ccccn3)C2=O)cc1OC | 21.9% |
| COc1ccccc1N1CCN(CCC(=O)Nc2ccc3c(c2)OCO3)CC1 | 7.26% |
| Cc1nc(N2CCN(c3ccccc3)CC2)[nH]c(=O)c1Cc1ccccc1 | 5.23% |
| COc1cc(NC(=O)c2c(F)c(F)c(OC)c(F)c2F)ccc1NC(=O)c1cccs1 | 6.32% |
| COc1cccc(C(=O)N/N=c2\oc3c(OC)cccc3cc2C(=O)NCc2ccccc2)c1 | 4.53% |
| Cc1ccc(/C(O)=C2\C(=O)C(=O)N(C)C2c2ccc(Br)cc2)cc1 (stereo not shown) | 10.9% |
| CCN(CC)c1ccc2c(c1)OC(N)=C(C#N)C2c1cccnc1 (stereo not shown) | 6.3% |
| O=C1CCCN1CCC(=O)N1CCCC(Nc2ccc(F)cc2)C1 (stereo not shown) | -3.86% |
| O=c1[nH]c2cc(Cl)cc(Cl)c2[nH]c1=O | 13.8% |
| COc1ccc(C2NC(=O)CCC2[N+](=O)[O-])cc1OC (stereo not shown) | 9.42% |
| COc1ccccc1C(=O)NNC(=O)c1ccccc1[N+](=O)[O-] | 12% |
| CC12CCC(C(=O)Nc3ccccc3)(C(Br)C1=O)C2(C)C (stereo not shown) | 0.0202% |
| COc1ccccc1NC(=O)COc1ccc(C(=O)NCc2ccccc2)cc1OC | 11.8% |
| CC(=O)N1CCN(Cc2nc3cc(NC(=O)c4cccc(Br)c4)ccc3n2C)CC1 | 10.5% |
| COc1ccc(CN2CCN(S(=O)(=O)c3ccccc3)CC2)cc1Br.O=C(O)C(=O)O | -2.93% |
| O=C1OCc2cc(NC(=O)C3COc4ccccc4O3)ccc21 (stereo not shown) | 4.29% |
| CC1(C)CC(NC(=O)C(=O)NCCc2ccc(Cl)cc2)CC(C)(C)N1 | 2.48% |
